# Some of the results follow. The list includes weakly bound sequences.
# Biological target: T1, MBP-FoxP3dN (UniProt Q99JB6)
# T1 sequence: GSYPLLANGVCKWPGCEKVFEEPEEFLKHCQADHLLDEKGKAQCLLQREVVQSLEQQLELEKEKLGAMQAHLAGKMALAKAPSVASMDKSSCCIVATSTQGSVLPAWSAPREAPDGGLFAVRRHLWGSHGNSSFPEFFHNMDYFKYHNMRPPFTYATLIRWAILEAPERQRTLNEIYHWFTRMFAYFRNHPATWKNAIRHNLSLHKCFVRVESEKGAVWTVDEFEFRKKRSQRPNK
# Test: PD-seq (MBP pull-down with sequencing)
# Settings: 20 mM Tris-HCl pH 7.5, 100 mM NaCl, 1.5 mM MgCl2, 0.4 uM protein, 0.1 uM dsDNA library, 30 min, room temperature, amylose pull-down; high values mean tight binding; double strand, one strand shown
row,Sequence,binding signal (RPM ratio (pull-down/input))
1,GATGATTGTTCTCCCAGCTGATGAATTTGTTAATTCGAGTAAACAAATTTTCCTAATCTTTCTGTTCAAGCGCCATCTAC,4.08
2,GATGATTGTTCTCCCAGCTGATGAATTCGACATCTCGAGTAAACAAATTTTCCTAATCTTTCTGTTCAAGCGCCATCTAC,0.959
3,GATGATTGTTCTCCCAGCTGATGAATTGTGTCGCTCGAGTAAACAAATTTTCCTAATCTTTCTGTTCAAGCGCCATCTAC,1.47
4,GATGATTGTTCTCCCAGCTGATGAATTCTGGAGATCGAGTAAACAAATTTTCCTAATCTTTCTGTTCAAGCGCCATCTAC,0.215
5,GATGATTGTTCTCCCAGCTGATGAATTATGTCGATCGAGTAAACAAATTTTCCTAATCTTTCTGTTCAAGCGCCATCTAC,0.68
6,GATGATTGTTCTCCCAGCTGATGAATTTCTCCGCTCGAGTAAACAAATTTTCCTAATCTTTCTGTTCAAGCGCCATCTAC,0.201
7,GATGATTGTTCTCCCAGCTGATGAATTTGTTCGTTCGAGTAAACAAATTTTCCTAATCTTTCTGTTCAAGCGCCATCTAC,4.06
8,GATGATTGTTCTCCCAGCTGATGAATTCCACTTTTCGAGTAAACAAATTTTCCTAATCTTTCTGTTCAAGCGCCATCTAC,0.379
9,GATGATTGTTCTCCCAGCTGATGAATTGGATTAATCGAGTAAACAAATTTTCCTAATCTTTCTGTTCAAGCGCCATCTAC,0.271
10,GATGATTGTTCTCCCAGCTGATGAATTCCAATCATCGAGTAAACAAATTTTCCTAATCTTTCTGTTCAAGCGCCATCTAC,0.611
11,GATGATTGTTCTCCCAGCTGATGAATTGACAATGTCGAGTAAACAAATTTTCCTAATCTTTCTGTTCAAGCGCCATCTAC,0.506
12,GATGATTGTTCTCCCAGCTGATGAATTCATACTTTCGAGTAAACAAATTTTCCTAATCTTTCTGTTCAAGCGCCATCTAC,0.388
13,GATGATTGTTCTCCCAGCTGATGAATTGTATAGGTCGAGTAAACAAATTTTCCTAATCTTTCTGTTCAAGCGCCATCTAC,1.08
14,GATGATTGTTCTCCCAGCTGATGAATTTATGACGTCGAGTAAACAAATTTTCCTAATCTTTCTGTTCAAGCGCCATCTAC,0.647
15,GATGATTGTTCTCCCAGCTGATGAATTAGCTGTATCGAGTAAACAAATTTTCCTAATCTTTCTGTTCAAGCGCCATCTAC,1.24
16,GATGATTGTTCTCCCAGCTGATGAATTATTATAGTCGAGTAAACAAATTTTCCTAATCTTTCTGTTCAAGCGCCATCTAC,0.458
17,GATGATTGTTCTCCCAGCTGATGAATTTCTCGAATCGAGTAAACAAATTTTCCTAATCTTTCTGTTCAAGCGCCATCTAC,0.211
18,GATGATTGTTCTCCCAGCTGATGAATTAGGCGTCTCGAGTAAACAAATTTTCCTAATCTTTCTGTTCAAGCGCCATCTAC,3.39
19,GATGATTGTTCTCCCAGCTGATGAATTTTGGTGCTCGAGTAAACAAATTTTCCTAATCTTTCTGTTCAAGCGCCATCTAC,0.668
20,GATGATTGTTCTCCCAGCTGATGAATTGCGGGTGTCGAGTAAACAAATTTTCCTAATCTTTCTGTTCAAGCGCCATCTAC,1.31

row,Sequence,binding signal (RPM ratio (pull-down/input))
1,GATGATTGTTCTCCCAGCTGATGAATTTCATTTCTCGAGTAAACAAATTTTCCTAATCTTTCTGTTCAAGCGCCATCTAC,0.8
2,GATGATTGTTCTCCCAGCTGATGAATTCAAGCTTTCGAGTAAACAAATTTTCCTAATCTTTCTGTTCAAGCGCCATCTAC,0.728
3,GATGATTGTTCTCCCAGCTGATGAATTCATAGGTTCGAGTAAACAAATTTTCCTAATCTTTCTGTTCAAGCGCCATCTAC,0.419
4,GATGATTGTTCTCCCAGCTGATGAATTGTACCCTTCGAGTAAACAAATTTTCCTAATCTTTCTGTTCAAGCGCCATCTAC,0.44
5,GATGATTGTTCTCCCAGCTGATGAATTCGTGCGCTCGAGTAAACAAATTTTCCTAATCTTTCTGTTCAAGCGCCATCTAC,0.634
6,GATGATTGTTCTCCCAGCTGATGAATTACTTGATTCGAGTAAACAAATTTTCCTAATCTTTCTGTTCAAGCGCCATCTAC,0.378
7,GATGATTGTTCTCCCAGCTGATGAATTGCGCGACTCGAGTAAACAAATTTTCCTAATCTTTCTGTTCAAGCGCCATCTAC,2.46
8,GATGATTGTTCTCCCAGCTGATGAATTTTGTGGTTCGAGTAAACAAATTTTCCTAATCTTTCTGTTCAAGCGCCATCTAC,4.43
9,GATGATTGTTCTCCCAGCTGATGAATTCGAATCCTCGAGTAAACAAATTTTCCTAATCTTTCTGTTCAAGCGCCATCTAC,0.471
10,GATGATTGTTCTCCCAGCTGATGAATTCGACGGATCGAGTAAACAAATTTTCCTAATCTTTCTGTTCAAGCGCCATCTAC,0.269
11,GATGATTGTTCTCCCAGCTGATGAATTCGGTGTCTCGAGTAAACAAATTTTCCTAATCTTTCTGTTCAAGCGCCATCTAC,1.86
12,GATGATTGTTCTCCCAGCTGATGAATTTCAGTTGTCGAGTAAACAAATTTTCCTAATCTTTCTGTTCAAGCGCCATCTAC,1.19
13,GATGATTGTTCTCCCAGCTGATGAATTGGGAAATTCGAGTAAACAAATTTTCCTAATCTTTCTGTTCAAGCGCCATCTAC,0.588
14,GATGATTGTTCTCCCAGCTGATGAATTATTTGGCTCGAGTAAACAAATTTTCCTAATCTTTCTGTTCAAGCGCCATCTAC,0.865
15,GATGATTGTTCTCCCAGCTGATGAATTGTAGGACTCGAGTAAACAAATTTTCCTAATCTTTCTGTTCAAGCGCCATCTAC,0.369
16,GATGATTGTTCTCCCAGCTGATGAATTTCCCCCATCGAGTAAACAAATTTTCCTAATCTTTCTGTTCAAGCGCCATCTAC,0.254
17,GATGATTGTTCTCCCAGCTGATGAATTAAGAGCGTCGAGTAAACAAATTTTCCTAATCTTTCTGTTCAAGCGCCATCTAC,0.433
18,GATGATTGTTCTCCCAGCTGATGAATTCATACGTTCGAGTAAACAAATTTTCCTAATCTTTCTGTTCAAGCGCCATCTAC,0.51
19,GATGATTGTTCTCCCAGCTGATGAATTCCAGCAATCGAGTAAACAAATTTTCCTAATCTTTCTGTTCAAGCGCCATCTAC,1.63
20,GATGATTGTTCTCCCAGCTGATGAATTACACCACTCGAGTAAACAAATTTTCCTAATCTTTCTGTTCAAGCGCCATCTAC,0.69

# From publication PMC12820563
